From the supplement of paper PMC12632987
Whole data set: some 4,500 sequences, median “median log2 fold change of GCK-ALFA target abundance (FLAG IP / Myc IP barcode read proportion)” near 0.078, cut for the lowest 2% near -0.6. The list shows a part of the results.

B1: GBRAP_137_3612 (protein)
chain: KKIVITFSEEDGVAIATIEADKDVDHEKLLELVEEVAKETGAKVVIAYSDEGDELIIDLVGDRETIVEAVRKLIKRLKEELGAEVELRSEGAEDLVEAVK
B2: GBRAP_43_5734 (protein)
chain: MEEVLDAAAETALLALESEELTDETKVRILRDFMEVAADESKENKELYKAAAEALARSDDAAAVKEAAKLAKELAAKDPKYKETLEAAAKYLEALLKELE
B3: GBRAP_78_6651 (protein)
chain: EVEELLEKALELVNEAAKLALKLPPEARLEVLDHLIDAATEIEEAIEEGGDLEHLKEALEHLKKAAEILKKLDTETAKELLKLVEEAIKLVEEAIKKLKE
B4: GBRAP_160_4469 (protein)
chain: SAEVKALVEELRKEVEEELEKLKDESPEQIANGVEVVVGSHLMEWSEAGKITDEQEDILIKAMDEIRKLAEEKKDASPEEVIKEIRKIIEKAAEEILKAS
B5: GBRAP_128_3346 (protein)
chain: VDEEKVAKAEELIEAMLTASPEEAKKLADELMELLLTMSLEEVEEVVKKALELLPKYTAEQLDILADALRKHRPLFTPEKAEVVAELQVEALNLAVEKEE
B6: GBRAP_11_2855 (protein)
chain: KKEKLKEIAELAKKAIELLKELLKKGVDDKELQKKIKELLEKLLELVKKYLDEASVKLAKEALESFKKSLEDPENKEKYINESLAFLEVLLGDVLLEIDE
B7: GBRAP_83_6898 (protein)
chain: KEKVVVVAPADRGEEAVDAAYDLEKEEGYEVELEIIATPEEFDLVEAAVERLAELGLEIPVTVVLRGATPEEAEALRARLEAIAARHGVNIPIEVILEEP
B8: GBRAP_160_4107 (protein)
chain: SAGLEAILKDFEEVLKEVLELWGEVSPEELAAYFETELGSVIMDAMENYGLSDETGDRLLDIVDKARERLLENGGKSLEEVKAILEETLEEIRKALEESD
B9: GBRAP_125_3074 (protein)
chain: ADAAALEDLALIARALGLSEGEVAELVRLAAASSLKQALIALLMAEGAEEAADAVAELTEAQAREVLAELAARLRAHPDLTKEEVIAAIKELAEAARAAA
B10: GBRAP_11_2704 (protein)
chain: KKEKLEEGAKLAEEAAKLVEELLEKGVDDEELRKELEKKLEELLKLTKKYGNEAEKKLAEIAYELWKEAQEDKENAEQYLKELLATLRVLEGQYLLEIEE
B11: GBRAP_52_6317 (protein)
chain: MKEEAEKLAEELVKLVKEGKEEEAKALAKKIAEEWSEEFIKLLAEVLAERIKTADEEERDALMEAAEILAEALEEAGWDPAFASDIIARAAKAAYEAELK
B12: GBRAP_160_4582 (protein)
chain: SAALEALKAAVDEEAEEAKKLVEGETAEQRANIVAVAGGRLIMEFSENPEVSDELLDRVDAIYDDLVATILANPNITDEEVKALIDKARDEIIAALDESF
B13: GBRAP_53_6397 (protein)
chain: SAATIAALLAELRALIAEVDADPTLDPEEVAARAGELLRAAVAAGAPAAELTALARELAAAVAARGLGVEVGTRLAATAAAAGAEEVAAVFTEAAVEDLE
B14: GBRAP_80_6810 (protein)
chain: AEERLEENLKKIEELDPELAERLKKIIERAKAAGVPVETLAELAEALLELLKVDKELAKEMLDELEEFLEEEIARGDTAEAEATLRVFAGEMLLEVEELE
B15: GBRAP_43_5760 (protein)
chain: SKELVDGAFDFALLALEEPSISQEQKVKAIKGAFDLAADEGYADKEKVLEVVKAAGKSLSKEELEKLAKHLKELSKKYPELKETLDEALKILEKAIAEKK
B16: GBRAP_137_3644 (protein)
chain: PNVTITVKTEGDLVEITITFDDPEKAEEVAELITDIAVENGALAISNEIKEDGTLESTIWVPKEKADALIDALVDALTTEFGATVTVIDENTGEVTTVEA
B17: GBRAP_184_5326 (protein)
chain: STLEVHIPNASLEEIVAQVAAAAKQAAAAGANLTLYIDAEGFSSEELVALLEAIGEIAKAEGIKNVTIGLDVEVDEETADKLIEVADKYGIKLTLALSDE
B18: GBRAP_52_6112 (protein)
chain: MREEMERLVEEILALVKAGRLEEARALLREFARRANEEEIELFAEALAERARRAAPEDWDAVWRLAEMAEEELLAEGWPEELADLLLAKTAAALYEREQA
B19: GBRAP_57_6477 (protein)
chain: SERLERVEELADRLEALVRAKGPLADIIAAAEALIAELPEDAELYVIDANGEAVLLAGDRAARAAAAAARLEALAAAGDWDGLLRFVRTLAGDAIATVLE
B20: GBRAP_128_3320 (protein)
chain: MDEELLAEFKELAEAAKKADLPTLAKLTAEMVALIGQADAETREEMAEIFRKALEELDAEKLDVVADTLRAEMPKLDPEAARVVADLAVDALNLAEEKEE
B21: GBRAP_26_5488 (protein)
chain: FEEEILDELEERTREILADEDPTLRAAVIAEAIDLLLEAIEEFEKNANDKEKQEKAKEEALKEMEEFLEKMGLSEEKREKLVEALREALEKALKEIQKKA
B22: GBRAP_166_4964 (protein)
chain: SEEELVEELKERIRELAEKAKTANYEEKLELLAEAAEAIREAREEGLSEESLRELLRLTLEEFSKVGLTLSTVAGALTILADLDEEEIDILEEVIEEVKA
B23: GBRAP_35_5522 (protein)
chain: DSDTLTVEMLVATIEDLTLAVPDMDVETAVQIATQLIKAAEELAKDIKNNVEGLKKLRDALAKLRDALEKHYGDDPLAQQVIAQIDKLIAEIDKMIKEAK
B24: GBRAP_39_5686 (protein)
chain: EEEEENEDVVSYLEGLAAKYLYETGKSLEEAFEEAKKILLKLAEEHPELKELIEKLIELAEKKGEEAKLALIGIAVLVKQGTPLEEIKENIEKVIAYFES
B25: GBRAP_184_5275 (protein)
chain: KVIHVDIVAETGEEAIKEVKKAAEKAKKEGAKLKINILLENSSVEETIKLFELLKKLKEEGIIEDAVVGIENEKTEEEIDTLLKAADEAGVKLVLAISDE
B26: GBRAP_11_2780 (protein)
chain: KKEKLEEIIKKAEEAIKLLDKLLEEGLDNEELRKELEKALKELRKLVEENMDEGTKKLVEIAEELWKKFLEDEENKEEYLEQMKAALRVLRGQALLELEE
B27: GBRAP_160_4161 (protein)
chain: SEEAEKLIEEVEELAKKAIEDIEGQSIEERAVIIAGYFGEIIMTLFESPVVSDETVDFAVKLRDELVKWLKENPDASLEEIKKKIEEVVKKIKEKIKEDA
B28: GBRAP_160_4693 (protein)
chain: SEKVEKFKKFVEEEFEEVVSLFDEVSREELAAAVRVAFGEIILEAEELGLLTDELDKVIDEEEEKIVNAILTNPNLTKEELKEMLEKAKEEIMAEVEKAS
B29: GBRAP_128_3275 (protein)
chain: MNEEIVKKAREFVEKLKKADEEEARKIAEEFAEWLGSVSTEEAEQAVDVIEERLDELSAEQLEILADVLEKHRDKFDPEKANLVAGLQVEALNEAEEKEE

Molecular target: GABARAP, O95166
Sequence (O95166 whole entry, the tested form may be a part): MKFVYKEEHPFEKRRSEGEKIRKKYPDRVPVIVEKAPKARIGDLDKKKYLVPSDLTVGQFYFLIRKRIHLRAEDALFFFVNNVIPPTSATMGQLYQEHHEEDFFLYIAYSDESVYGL
Experiment: median log2 fold change of GCK-ALFA target abundance (FLAG IP / Myc IP barcode read proportion) (log2 ratio); each designed protein is fused to an ALFA-tag nanobody in HEK293 cells to bring the named protein to FLAG-tagged glucokinase (GCK); Myc marks an untargeted standard; higher = target protein stabilised (more abundant)
Settings: target protein: 3xFLAG-MCP-GCK-ALFA reporter; HEK293 landing pad (RPLP)
How it was run: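 Binders fused to an ALFA nanobody were recombined as a library into HEK293 landing-pad cells, which were induced with 2 μg mL^−1 doxycycline and then transfected to express a FLAG-tagged target and a Myc-tagged standard. After 48 h, circular RNA barcodes recovered by anti-FLAG and anti-Myc immunoprecipitation of lysates were reverse transcribed, amplified and sequenced. Each binder's target abundance is the median log2 ratio of FLAG to Myc barcode read proportions, from barcodes present at ≥10^−7 in both replicates, binders carrying ≥3 barcodes per replicate, a 10^−6 pseudocount and pooled replicates.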

Compared with B1, B2 is higher in “median log2 fold change” value: -0.568 for the first, 0.151 for the second.

B3 and B4 are within 0.2 log units of each other in “median log2 fold change” value: 0.136 for the first, 0.254 for the second.

B5 and B6 are within 0.2 log units of each other in “median log2 fold change” value: 0.131 for the first, 0.193 for the second.

First: B7
Second: B8
The “median log2 fold change” value of the first is higher: 0.191 for the first, -0.108 for the second.

B9 and B10 are within 0.2 log units of each other in “median log2 fold change” value: 0.207 for the first, 0.375 for the second.

First: B11
Second: B12
The “median log2 fold change” value of the first is higher: 0.323 for the first, -0.0806 for the second.

Going from B13 to B14, the “median log2 fold change” value falls from 0.226 to -0.27.

B15 and B16 are within 0.2 log units of each other in “median log2 fold change” value: 0.201 for the first, 0.0996 for the second.

Going from B17 to B18, the “median log2 fold change” value falls from 0.171 to -0.121.

B19 and B20 are within 0.2 log units of each other in “median log2 fold change” value: 0.22 for the first, 0.0824 for the second.

First: B21
Second: B22
The “median log2 fold change” value of the first is higher: 0.257 for the first, -0.131 for the second.

First: B23
Second: B24
The “median log2 fold change” value of the first is lower: -0.0356 for the first, 0.293 for the second.

First: B25
Second: B26
The “median log2 fold change” value of the first is lower: -0.234 for the first, 0.225 for the second.

First: B27
Second: B28
The “median log2 fold change” value of the first is higher: 0.164 for the first, -0.166 for the second.

With B29 the “median log2 fold change” value was 0.242.
